Reference: the RNAGym collection of RNA variant scans (doi:10.1093/nar/gkz1192)
The source gives no read counts; variants with many changes may rest on few reads.

B1: CPEB3 Ribozyme (parent)
chain: UAACAGGGGGCCACAGCAGAAGCGUUCACGUCGCAGCCCCUGUCAGAUUCUGGUGAAUCUGCGAAUUCUGCUGUAUAUCUC

Variants of: B1
Assay: self-cleavage, relative activity (ratio to wild type); higher = more cleavage; in vitro, sequencing
Summary of the method: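 Relative activity compares each variant's cleaved/total read fraction with that of the unmutated ribozyme. To get these fractions, barcoded CPEB3 ribozyme libraries from rounds of error-prone PCR were transcribed with T7 RNA polymerase for 5 hours at 37°C and then given 15 min of DNase I treatment before EDTA was added. The RNAs were reverse transcribed with template switching and sequenced on Illumina, and DNA sequencing linked barcodes to variants. A minimum of 5 reads applied, and three batches were averaged.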
UAACAGGGGGCCACAGCAGAAGCGAUCACGUCGCAGCCCCUGUCAGGUUCUAGCGAAUCUGCGAAUUCUGCUGUAUAUCUC [U25A A47G G52A U54C] gave a self-cleavage of 0.26.
With UAACAGGGGGCCACAGCAGAAGCGAUCAUGUCGCAGCCCCUGUCAGACUCUGGUGAAUCUGCGAGUUCUGCUGAAUAUCUC [U25A C29U U48C A65G U74A] the self-cleavage was 0.08.
In the case of UAACAGGGGGCCACAGCAGAAGCGAUCAUGUCGCAGCCCCUGUCGGGUUCUGGUGAAUCUGCGAAUUCUGCAGUUUAUCUC [U25A C29U A45G A47G U72A A75U], the self-cleavage is reported as 0.08.
Variant UAACAGGGGGCCACAGCAGAAGCGAUCACGUCGCAGCCCCUGUCAGAUUCUGGUGAAUCUGCGUACUCUGCCGUAUAUCUC [U25A A64U U66C U72C] has a self-cleavage of 0.19.
For UAACAGGGGGCCACAGCAGAAGCGAUCACGUCGCAGCCCCUGUCAGAUUCUGGUGAGUCUGUGAAUACUGCUGUAUAUCUC [U25A A57G C62U U67A], the self-cleavage was 0.13.
Work on UAACAGGGGGCCACAGCAGAAGCGAUCACGUCGCAGCCCCUGUCAGAUUCUGGUGUAUCCGCGAAUUCUGCUGUAUAUCUC [U25A A56U U60C] yielded a self-cleavage of 0.16.
With UAACAGGGGGCCACAGCAGAAGCGAUCACGUUGCAGCCCCUGUCGGAUUCUGGUGAAUCUGCGAGUUCUGCUGUAUAUCUC [U25A C32U A45G A65G] the self-cleavage was 0.13.
UAACAGGGGGCCACAGCAGAAGCGAUCACGUCGCAGCCCCUGUCAGAUUCUGGUGAAUCUGCGAAUUCUGCUGUAUUUCCC [U25A A77U U80C] showed a self-cleavage of 0.33.
Variant UAACAGGGGGCCACAGCAGAAGCGAUCACGUCGCAGCCCCUGUCAGAUUCUGGUGAGUCUGCGAAUUCAGCAGUAUAUCUC [U25A A57G U69A U72A] has a self-cleavage of 0.14.
In the case of UAACAGGGGGCCACAGCAGAAGCGAUCACGUCGCAGCCCCUGUCGGAUACUGGUGAAUCUGCGAAUACUGCUGUAUAUCCC [U25A A45G U49A U67A U80C], the self-cleavage is reported as 0.08.
For UAACAGGGGGCCACAGCAGAAGCGAUCACGUCGCAGCCCCUGUCCGAUUCUGGUGAAUCUGCGAAUUCUGCUGUAUACCUC [U25A A45C U78C], the self-cleavage was 0.13.
UAACAGGGGGCCACAGCAGAAGCGAUCACGUCGCAGCCCCUGUCGGAUUCUGGUGGAUCUGCGAAUUCUGCUGUAUAUCUC [U25A A45G A56G] showed a self-cleavage of 0.23.
With UAACAGGGGGCCACAGCAGAAGCGAUCACGUCGCAGCCCCUGUCAGAUUCUGGUGGAUCUGCGAAUUCUGCAGUACAUCUC [U25A A56G U72A U76C] the self-cleavage was 0.1.
With UAACAGGGGGCCACAGCAGAAGCGAUCACGUCGCAGCCCCUGUCAGAUUCUGGUGAGUCUGCGAAUUCUGCCGUAUAUCUC [U25A A57G U72C] the self-cleavage was 0.05.
Variant UAACAGGGGGCCACAGCAGAAGCGAUCACGUCGCAGCCCCUGUCAGAUUCUGGUGAAUCUGCGUAUUCUGCUGUAUACCUC [U25A A64U U78C] has a self-cleavage of 0.12.
Work on UAACAGGGGGCCACAGCAGAAGCGAUCACGUCGCAGCCCCUGUCUGAUUCUGGCGAAUCUGCGAAUUCUGCUGUAAUUCUC [U25A A45U U54C U76A A77U] yielded a self-cleavage of 0.09.
UAACAGGGGGCCACAGCAGAAGCGAUCACGUCGCAGCCCCUGUCAGGUUCUGGCGAAUCUGCGAAUUCUGCUGUAUAUCUC [U25A A47G U54C] gave a self-cleavage of 0.08.
UAACAGGGGGCCACAGCAGAAGCGAUCACGUCGCAGCCCCUGUCAGGUUCCGGUGAAUCUGCGAAUUCUGCUGUAUAUCAC [U25A A47G U51C U80A] showed a self-cleavage of 0.09.
UAACAGGGGGCCACAGCAGAAGCGAUCACGUCGCAGCCCCUGUCUGAUUCUGGCGAAUCUGCGAACUCUGCUGUAUAUCUC [U25A A45U U54C U66C] gave a self-cleavage of 0.09.
Variant UAACAGGGGGCCACAGCAGAAGCGAUCAAGUCGCAGCCCCUGUCAGAUUCUGGUGAGUCUGCGAAUUCUGCUGUAUAUCUC [U25A C29A A57G] has a self-cleavage of 0.28.
With UAACAGGGGGCCACAGCAGAAGCGAUCACGUCGCAGCCCCUGUCAGAUUCUGGUGAAUCUGCGAUUUCUGCCGUAUAUCUC [U25A A65U U72C] the self-cleavage was 0.12.
For UAACAGGGGGCCACAGCAGAAGCGAUCACGUCGCAGCCCCUGUCAGGCUCUGGUGAAACUGCGAAUUCUGCUGUAUAUCUC [U25A A47G U48C U58A], the self-cleavage was 0.08.
Variant UAACAGGGGGCCACAGCAGAAGCGAUCACGUCGCAGCCCCUGUCAGAUUCUGGUGAAUCUGCGUAAUCUGCUGUAUAUCUC [U25A A64U U66A] has a self-cleavage of 0.12.
Variant UAACAGGGGGCCACAGCAGAAGCGAUCACGUCGCAGCCCCUGUCAGAUUCUGGUGGAUCGGCGAAUUCAGCUGUAUAUCUC [U25A A56G U60G U69A] has a self-cleavage of 0.27.
For UAACAGGGGGCCACAGCAGAAGCGAUCACGUCGCAGCCCCUGUCGGUUUCUGGUGAGUCUGCGAAUUCUGCUGUAUAUCAC [U25A A45G A47U A57G U80A], the self-cleavage was 0.07.
For UAACAGGGGGCCACAGCAGAAGCGAUCAAGUCGCAGCCCCUGUCAGAUUCUGGUGAAUCUGCGAAUUCUGCAGUAUAUCUC [U25A C29A U72A], the self-cleavage was 0.34.
Work on UAACAGGGGGCCACAGCAGAAGCGAUCACGUCGCAGCCCCUGUCUGAUUCUGGUGAAUCUGCGAGUUCAGCUGUAUAUCUC [U25A A45U A65G U69A] yielded a self-cleavage of 0.32.
UAACAGGGGGCCACAGCAGAAGCGAUCAUGUCGCAGCCCCUGUCAGAUCCUGGCGAAUCUGCGAAUUCUGCUGUAAAUCUC [U25A C29U U49C U54C U76A] showed a self-cleavage of 0.04.
In the case of UAACAGGGGGCCACAGCAGAAGCGAUCACGUCGCAGCCCCUGUCAGAUUCUGGUGGAUCUGCGAAUUCUGCUGUAAAUCUC [U25A A56G U76A], the self-cleavage is reported as 0.1.
Variant UAACAGGGGGCCACAGCAGAAGCGAUCACGUCGCAGCCCCUGUCAGAUUCUGGUGAAUCUGCGGAUUCUGCUGUAUACCUC [U25A A64G U78C] has a self-cleavage of 0.35.
In the case of UAACAGGGGGCCACAGCAGAAGCGAUCAUGUCGCAGCCCCUGUCAGAUUCUGGUGAAUCAGCGAAUUCUGCUGUAUAUCUC [U25A C29U U60A], the self-cleavage is reported as 0.07.
With UAACAGGGGGCCACAGCAGAAGCGAUCACGUCGCAGCCCCUGUCAGAUUCUGGUGGAUCUGCGAAUUCUGCUGCAUAUCUC [U25A A56G U74C] the self-cleavage was 0.4.
UAACAGGGGGCCACAGCAGAAGCGAUCACGUCGCAGCCCCUGUCAGAUUCUGGUGGAGAUGCGAAUUCUGCUGUAUAUCUC [U25A A56G U58G C59A] gave a self-cleavage of 0.11.
For UAACAGGGGGCCACAGCAGAAGCGAUCACGUCGCAGCCCCUGUCUGAUUCUGGUGAAUCUGCGAAUUCUGCUGUAUACCUC [U25A A45U U78C], the self-cleavage was 0.23.
